# Reference: patent US20190336582A1 (published 2019)
# T1: IL-10 receptor (IL-10R1 and IL-10R2 receptor chains) on mouse cells (mouse, UniProt Q61727 17-575; Q61190 20-349)
# T1 sequence (looked up) 1: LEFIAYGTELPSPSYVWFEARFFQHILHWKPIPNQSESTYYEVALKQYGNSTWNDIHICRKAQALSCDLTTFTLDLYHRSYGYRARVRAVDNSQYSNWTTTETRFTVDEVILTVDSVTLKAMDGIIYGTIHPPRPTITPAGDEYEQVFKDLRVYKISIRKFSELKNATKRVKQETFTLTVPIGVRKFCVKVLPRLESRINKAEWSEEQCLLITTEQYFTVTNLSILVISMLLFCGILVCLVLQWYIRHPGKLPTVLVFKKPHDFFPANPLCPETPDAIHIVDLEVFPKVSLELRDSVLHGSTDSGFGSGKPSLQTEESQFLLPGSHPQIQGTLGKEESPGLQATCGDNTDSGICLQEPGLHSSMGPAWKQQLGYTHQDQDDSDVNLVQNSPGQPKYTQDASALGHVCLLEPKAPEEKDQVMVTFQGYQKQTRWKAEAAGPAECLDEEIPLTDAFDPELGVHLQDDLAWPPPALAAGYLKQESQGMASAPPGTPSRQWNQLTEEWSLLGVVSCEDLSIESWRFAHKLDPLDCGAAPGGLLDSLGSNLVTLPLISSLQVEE
# T1 sequence (looked up) 2: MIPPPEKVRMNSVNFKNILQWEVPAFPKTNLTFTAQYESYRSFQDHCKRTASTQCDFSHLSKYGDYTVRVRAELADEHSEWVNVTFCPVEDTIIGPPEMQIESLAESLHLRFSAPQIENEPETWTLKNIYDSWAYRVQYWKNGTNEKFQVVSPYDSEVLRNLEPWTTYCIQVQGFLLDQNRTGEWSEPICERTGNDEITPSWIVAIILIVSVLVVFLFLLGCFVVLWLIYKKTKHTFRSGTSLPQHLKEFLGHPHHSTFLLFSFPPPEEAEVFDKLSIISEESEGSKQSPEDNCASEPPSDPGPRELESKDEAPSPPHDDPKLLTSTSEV
# Target: T1, IL-10 receptor (IL-10R1 and IL-10R2 …)
# Assay: cell-based or functional assay
"EC50, proliferation of mouse mast cell line MC/9","IC50, inhibition of TNFα production in LPS-stimulated C57BL/6 mouse PBMCs (PBMC + LPS)",Binder
864 pM,–,"(scIL-10:Fc), hinge truncation mutant 2 (Fc fusion) SPGQGTQSENSCTHFPGNLPNMLRDLRDAFSRVKTFFQMKDQLDNLLLKESLLEDFKGYLGCQALSEMIQFYLEEVMPQAENQDPDIKAHVNSLGENLKTLRLRLRRCHRFLPCENKSKAVEQVKNAFNKLQEKGIYKAMSEFDIFINYIEAYMTMKIRNGGSGGSPGQGTQSENSCTHFPGNLPNMLRDLRDAFSRVKTFFQMKDQLDNLLLKESLLEDFKGYLGCQALSEMIQFYLEEVMPQAENQDPDIKAHVNSLGENLKTLRLRLRRCHRFLPCENKSKAVEQVKNAFNKLQEKGIYKAMSEFDIFINYIEAYMTMKI[human IgG1 Fc and a few adjoining residues cut from this listing]"
1010 pM,–,"(scIL-10:Fc), hinge truncation mutant 3 (Fc fusion) SPGQGTQSENSCTHFPGNLPNMLRDLRDAFSRVKTFFQMKDQLDNLLLKESLLEDFKGYLGCQALSEMIQFYLEEVMPQAENQDPDIKAHVNSLGENLKTLRLRLRRCHRFLPCENKSKAVEQVKNAFNKLQEKGIYKAMSEFDIFINYIEAYMTMKIRNGGSGGSPGQGTQSENSCTHFPGNLPNMLRDLRDAFSRVKTFFQMKDQLDNLLLKESLLEDFKGYLGCQALSEMIQFYLEEVMPQAENQDPDIKAHVNSLGENLKTLRLRLRRCHRFLPCENKSKAVEQVKNAFNKLQEKGIYKAMSEFDIFINYIEAYMTMKI[human IgG1 Fc and a few adjoining residues cut from this listing]"
264 pM,0.12 pM,D41F:linker:wtIL-10 (R1 mutant) (Fc fusion) SPGQGTQSENSCTHFPGNLPNMLRDLRDAFSRVKTFFQMKFQLDNLLLKESLLEDFKGYLGCQALSEMIQFYLEEVMPQAENQDPDIKAHVNSLGENLKTLRLRLRRCHRFLPCENKSKAVEQVKNAFNKLQEKGIYKAMSEFDIFINYIEAYMTMKIRNGGSGGGGSGGSPGQGTQSENSCTHFPGNLPNMLRDLRDAFSRVKTFFQMKDQLDNLLLKESLLEDFKGYLGCQALSEMIQFYLEEVMPQAENQDPDIKAHVNSLGENLKTLRLRLRRCHRFLPCENKSKAVEQVKNAFNKLQEKGIYKAMSEFDIFINYIEAYMTMKIRNGGGGSGGGGSRTVAAPSVFIFPPSDEQLKSGTASVVCLLNNFYPREAKVQWKVDNALQSGNSQESVTEQDSKDSTYSLSSTLTLSKADYEKHKVYACEVTHQGLSSPVTKSFNRGECGGGGSGGGGSGGGGSGGGGSASTKGPSVFPLAPSSKSTSGGTAALGCLVKDYFPEPVTVSWNSGALTSGVHTFPAVLQSSGLYSLSSVVTVPSSSLGTQTYICNVNHKPSNTKVDKRV[human IgG1 Fc cut from this listing]
541 pM,0.73 pM,M22A:linker:M22A (R2 mutant) (Fc fusion) SPGQGTQSENSCTHFPGNLPNALRDLRDAFSRVKTFFQMKDQLDNLLLKESLLEDFKGYLGCQALSEMIQFYLEEVMPQAENQDPDIKAHVNSLGENLKTLRLRLRRCHRFLPCENKSKAVEQVKNAFNKLQEKGIYKAMSEFDIFINYIEAYMTMKIRNGGSGGGGSGGSPGQGTQSENSCTHFPGNLPNALRDLRDAFSRVKTFFQMKDQLDNLLLKESLLEDFKGYLGCQALSEMIQFYLEEVMPQAENQDPDIKAHVNSLGENLKTLRLRLRRCHRFLPCENKSKAVEQVKNAFNKLQEKGIYKAMSEFDIFINYIEAYMTMKIRNGGGGSGGGGSRTVAAPSVFIFPPSDEQLKSGTASVVCLLNNFYPREAKVQWKVDNALQSGNSQESVTEQDSKDSTYSLSSTLTLSKADYEKHKVYACEVTHQGLSSPVTKSFNRGECGGGGSGGGGSGGGGSGGGGSASTKGPSVFPLAPSSKSTSGGTAALGCLVKDYFPEPVTVSWNSGALTSGVHTFPAVLQSSGLYSLSSVVTVPSSSLGTQTYICNVNHKPSNTKVDKRV[human IgG1 Fc cut from this listing]
47 pM,0.077 pM,M22A:linker:wtIL-10 (R2 mutant) (Fc fusion) SPGQGTQSENSCTHFPGNLPNALRDLRDAFSRVKTFFQMKDQLDNLLLKESLLEDFKGYLGCQALSEMIQFYLEEVMPQAENQDPDIKAHVNSLGENLKTLRLRLRRCHRFLPCENKSKAVEQVKNAFNKLQEKGIYKAMSEFDIFINYIEAYMTMKIRNGGSGGGGSGGSPGQGTQSENSCTHFPGNLPNMLRDLRDAFSRVKTFFQMKDQLDNLLLKESLLEDFKGYLGCQALSEMIQFYLEEVMPQAENQDPDIKAHVNSLGENLKTLRLRLRRCHRFLPCENKSKAVEQVKNAFNKLQEKGIYKAMSEFDIFINYIEAYMTMKIRNGGGGSGGGGSRTVAAPSVFIFPPSDEQLKSGTASVVCLLNNFYPREAKVQWKVDNALQSGNSQESVTEQDSKDSTYSLSSTLTLSKADYEKHKVYACEVTHQGLSSPVTKSFNRGECGGGGSGGGGSGGGGSGGGGSASTKGPSVFPLAPSSKSTSGGTAALGCLVKDYFPEPVTVSWNSGALTSGVHTFPAVLQSSGLYSLSSVVTVPSSSLGTQTYICNVNHKPSNTKVDKRV[human IgG1 Fc cut from this listing]
1370 pM,0.18 pM,wtIL-10:linkerD41F (R1 mutant) (Fc fusion) SPGQGTQSENSCTHFPGNLPNMLRDLRDAFSRVKTFFQMKDQLDNLLLKESLLEDFKGYLGCQALSEMIQFYLEEVMPQAENQDPDIKAHVNSLGENLKTLRLRLRRCHRFLPCENKSKAVEQVKNAFNKLQEKGIYKAMSEFDIFINYIEAYMTMKIRNGGSGGGGSGGSPGQGTQSENSCTHFPGNLPNMLRDLRDAFSRVKTFFQMKFQLDNLLLKESLLEDFKGYLGCQALSEMIQFYLEEVMPQAENQDPDIKAHVNSLGENLKTLRLRLRRCHRFLPCENKSKAVEQVKNAFNKLQEKGIYKAMSEFDIFINYIEAYMTMKIRNGGGGSGGGGSRTVAAPSVFIFPPSDEQLKSGTASVVCLLNNFYPREAKVQWKVDNALQSGNSQESVTEQDSKDSTYSLSSTLTLSKADYEKHKVYACEVTHQGLSSPVTKSFNRGECGGGGSGGGGSGGGGSGGGGSASTKGPSVFPLAPSSKSTSGGTAALGCLVKDYFPEPVTVSWNSGALTSGVHTFPAVLQSSGLYSLSSVVTVPSSSLGTQTYICNVNHKPSNTKVDKRV[human IgG1 Fc cut from this listing]
38 pM,0.045 pM,wtIL-10:linker:M22A (R2 mutant) (Fc fusion) SPGQGTQSENSCTHFPGNLPNMLRDLRDAFSRVKTFFQMKDQLDNLLLKESLLEDFKGYLGCQALSEMIQFYLEEVMPQAENQDPDIKAHVNSLGENLKTLRLRLRRCHRFLPCENKSKAVEQVKNAFNKLQEKGIYKAMSEFDIFINYIEAYMTMKIRNGGSGGGGSGGSPGQGTQSENSCTHFPGNLPNALRDLRDAFSRVKTFFQMKDQLDNLLLKESLLEDFKGYLGCQALSEMIQFYLEEVMPQAENQDPDIKAHVNSLGENLKTLRLRLRRCHRFLPCENKSKAVEQVKNAFNKLQEKGIYKAMSEFDIFINYIEAYMTMKIRNGGGGSGGGGSRTVAAPSVFIFPPSDEQLKSGTASVVCLLNNFYPREAKVQWKVDNALQSGNSQESVTEQDSKDSTYSLSSTLTLSKADYEKHKVYACEVTHQGLSSPVTKSFNRGECGGGGSGGGGSGGGGSGGGGSASTKGPSVFPLAPSSKSTSGGTAALGCLVKDYFPEPVTVSWNSGALTSGVHTFPAVLQSSGLYSLSSVVTVPSSSLGTQTYICNVNHKPSNTKVDKRV[human IgG1 Fc cut from this listing]
